Data published in the supplement of paper PMC10126150.
Values marked as one replicate rest on one cluster of the flow cell; about a third of the high ones do not repeat.

Tested on: ATP
Experiment: switch fluorescence ratio, 500 uM ATP over buffer (Cy3 cluster intensity, sum of 5 cycles each) (fold (ratio)); higher = stronger signal-on switching upon ATP binding; sequences stand for … in TCGTCGGCAGCGTCAGATGTGTATAAGAGACAGTTTTTTTTTTTTTTTTTTTTTTTTT…TC
Details: aptamer strand: ATP DNA aptamer (quencher-CACCTGGGGGAGTATTGCGGAGGAAGG + anchor), 100 nM annealed; ATP concentration: 500 uM; one replicate
Summary of the method: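 Cy3-labelled switching-strand clusters on a modified Illumina MiSeq flow-cell were annealed to 100 nM quencher-labelled ATP aptamer, imaged in selection buffer, then imaged after 15 min with 500 uM ATP at 22 °C. Five buffer/ATP cycles ran, with NaOH stripping and re-annealing between them. The fluorescence ratio is summed target-cycle over summed buffer-cycle Cy3 intensity per cluster, averaged per switch-domain sequence. Clusters outside 100-1000 RFU were excluded.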
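Also: ATP exposure 15 min at 22 °C before imaging.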

Row | Sequence | switch fluorescence ratio
1 | TGAATGTCAT | 0.997
2 | CCAAAAATCA | 1.01
3 | ACGGTGCGAT | 1.08
4 | ACTTTCCCCA | 1.16
5 | TTTGACATG | 1.1
6 | GGCACGAGCG | 1.03
7 | TAAAAGACAG | 1.04
8 | GGATGAAAGA | 1
9 | ACTTCGGCAA | 4.03
10 | AGGTTCCAAG | 0.964
11 | CGGGATGAAT | 1.55
12 | ATGGATCCTG | 0.995
13 | ATAGAACCAT | 1.03
14 | TTCGAACTTT | 1
15 | CAAAGGTCCA | 1.07
16 | TATCTGACGC | 1.25
17 | CAGATTACTG | 0.941
18 | ATTTCGCCGC | 1.14
19 | GCTTCACATT | 1.03
20 | TCAAGAAATT | 1.06
21 | AGGTGTGTAC | 0.975
22 | AACATAAGAA | 1.03
23 | CGAGTCCCCG | 0.986

Row | Sequence | switch fluorescence ratio
24 | CGGTCTAAGC | 1.03
25 | GGCAACCAGG | 2.02
26 | CGGAGGCGAT | 1.29
27 | GACTGCGCTG | 0.96
28 | AAGACCTAT | 0.998
29 | GGATTCGACA | 0.993
30 | GCAGTCGACC | 1.12
31 | CTGGCAGGAT | 0.968
32 | CGCTGATCTG | 1.03
33 | TCAGTCCTCG | 0.955
34 | GTCAGGCGCG | 0.989
35 | ACTGTGACCC | 1.23
36 | ATAGTCATG | 0.976
37 | CTGCCAAAAG | 1.07
38 | AATCCGCGCC | 3.69
39 | ATTCATAAGG | 1.01
40 | ATTCGTTAT | 1.03
41 | ACTCCTATCA | 1.09
42 | TATCCGGAGA | 1.04
43 | ACCGGCTTTA | 1
44 | TGACAGCGAG | 1.02
45 | GCTTACTAAT | 0.986
46 | ACAGTCGCGT | 1.06

Row | Sequence | switch fluorescence ratio
47 | ATAAAGGTTT | 1.03
48 | TAAGCGCCA | 1.04
49 | CGGGACGTCA | 1.04
50 | AGGGCTAATG | 0.99
51 | TTGGTATGCG | 0.93
52 | AAGGGCTGAA | 0.998
53 | ATGGGGGCGC | 1.03
54 | TCTCATAAGG | 0.977
55 | GGGCAGTGAC | 1.01
56 | TTTAGGTTTC | 0.97
57 | TAGAACGCCG | 1.02
58 | CACGTGTTTT | 1.03
59 | ATTGCACGGG | 1.03
60 | ACCTCCTCTA | 1.95
61 | GAGGCGAGTA | 0.916
62 | CATCTCGGGT | 1.02
63 | AAGAGATAGA | 0.973
64 | TTGTCTACAA | 0.989
65 | ATTAGTTAGT | 0.97
66 | TCGCAGCGAA | 1.07
67 | TACATGCGAT | 1.12
68 | TGGCCAAGCG | 1.05
69 | TTGCACCAGT | 1.01

Row | Sequence | switch fluorescence ratio
70 | CTATAGGGGC | 1.01
71 | TACGGGATGA | 1.05
72 | CGTCCACTGG | 1.08
73 | CAGTTCGGCG | 0.961
74 | CTTTGGTCGG | 0.956
75 | GTTGGATGTG | 1.04
76 | TCAGCACGCC | 1.13
77 | GGGTTGCCGG | 1.01
78 | AGTTCCGTGT | 1.04
79 | GGTTCCAGTT | 0.937
80 | CGTCTTGCAA | 3.2
81 | GATGTGGAAC | 0.981
82 | CTTAAGGGA | 1.04
83 | ATTGAGTTG | 0.999
84 | ATATATAGGA | 0.981
85 | GAATGGTGAT | 0.958
86 | GACATGGAAA | 0.974
87 | GAACGGATCT | 1.03
88 | ACACTTGG | 1.05
89 | ATAAAGGTGT | 1.14
90 | GCATCTCGGA | 1.06
91 | CGGACGCGGG | 1.07
92 | TCGCTTGCAC | 1.12

Row | Sequence | switch fluorescence ratio
93 | CCTCGGTGAG | 0.952
94 | ATGGTTTGTC | 0.965
95 | CCCACCTAAT | 1.06
96 | CATGAGGGTT | 0.999
97 | GAAGGACGTA | 1.05
98 | TCTAGAGGAG | 1.01
99 | CCGATCGGAA | 1.13
100 | CATTTATCAA | 1.02
101 | TACAGGTGTT | 2.82
102 | TCCCAGAGGA | 1.22
103 | TGCGTCGAG | 0.996
104 | TAGTTTTGA | 0.984
105 | TCGGGACTCA | 0.963
106 | AGGGCAGTTT | 1.02
107 | TTATACTATA | 1.05
108 | GTGCCAATGT | 0.987
109 | TAGCCTTTCA | 1
110 | ATCCAGTGTT | 1.04
111 | GAGAAGTTTC | 1.06
112 | TTCGGGGGCC | 1.03
113 | TTGGTGGTGT | 0.985
114 | ACTGGAATCT | 1.09
115 | ACACTTAAAA | 0.991

Row | Sequence | switch fluorescence ratio
116 | CGTTACCGAA | 0.94
117 | GTGTCTTGGC | 0.969
118 | TACGTAAAT | 1.94
119 | GTGTATAATT | 1.28
120 | TTTCGTATT | 1.02
121 | TCCTTAGACG | 1.01
122 | AGAGTCAACG | 1.03
123 | TTTAATTATC | 0.996
124 | GTGTACGGAG | 1.01
125 | TGTAGATTTG | 1.03
126 | CGATTTAATC | 0.99
127 | ATAATACGCA | 1.19
128 | TTACAGTTTG | 0.913
129 | GAACGAGCCA | 0.99
130 | ATTTAGTAAT | 0.983
131 | CAATTGGCAC | 1.06
132 | AATCTTAATA | 0.976
133 | GTGTGTATTG | 1.01
134 | GAGTGGTGAG | 0.989
135 | TTGGTGGCAC | 1.03
136 | ATCTTCTCGT | 0.974
137 | AAAAGTGCCT | 1.14
138 | AATTGTCACC | 0.997

Row | Sequence | switch fluorescence ratio
139 | GATGCTCCTC | 1.08
140 | GTCGGGTGCC | 0.987
141 | AGACGAAGGT | 1.02
142 | CATAATCTAA | 0.992
143 | GAGAGAGCCG | 0.972
144 | GTGTAGCAAT | 3.74
145 | ACTGCGATGG | 1.33
146 | GAGCACCCAA | 1.02
147 | GAGACCGTCG | 0.919
148 | CCGTGAAGGT | 1.05
149 | GAGGGTGTGC | 1.01
150 | CATCCCACAT | 1.58
151 | AGAAGGTGAA | 1.11
152 | TTATACGAAG | 1.04
153 | TGCCTAGA | 1.01
154 | TCCGTGTATC | 1.28
155 | CTTTTATCTT | 0.975
156 | TGGTTTTAAA | 0.985
157 | CTGACGTCGG | 1.03
